# Experimental data from PubChem BioAssay AID596 (National Center for Advancing Translational Sciences (NCATS), 2007).
# The whole screen tested about 71,000 compounds, of which about 1,400 (2%) were called active. The shares of active, inactive and inconclusive entries below differ from those in the screen. Calls follow the shape of the dose curve; as a rule, active = well fitted curve in the direction sought with a large enough effect; inconclusive = small, poorly fitted or top-dose-only effect; inactive = no such curve, though single readings can be large or run the other way. Potencies beside an inconclusive call are fits to weak or partial responses and may not hold up. More than one record can exist for a structure, and the calls need not agree.
# Target: Microtubule-associated protein tau (Homo sapiens) (UniProt P10636)
# Assay: qHTS Assay for Tau Filament Binding
# Settings: recombinant tau filaments, thioflavin S fluorescence, 15 h, filaments grown with octadecylsulfate alongside compound; series mostly up to 57.1 µM; activity change, negative = inhibition: at the top concentration
# Procedure, shortened: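 Thioflavine S fluorescence (ex 450, em 510 nm) reports filaments formed from 1 uM human tau plus 30 uM ODS over 15 h at 37 C (10 mM HEPES pH 7.4, 100 mM NaCl, 5 mM DTT); compounds displacing dye or blocking filaments lower signal.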
# % is scaled to controls: 0 for no effect and ±100 for the full control effect; potency is read from the fitted curve at half-maximal effect.
# UniProt P10636, sequence (P10636 whole entry, looked up): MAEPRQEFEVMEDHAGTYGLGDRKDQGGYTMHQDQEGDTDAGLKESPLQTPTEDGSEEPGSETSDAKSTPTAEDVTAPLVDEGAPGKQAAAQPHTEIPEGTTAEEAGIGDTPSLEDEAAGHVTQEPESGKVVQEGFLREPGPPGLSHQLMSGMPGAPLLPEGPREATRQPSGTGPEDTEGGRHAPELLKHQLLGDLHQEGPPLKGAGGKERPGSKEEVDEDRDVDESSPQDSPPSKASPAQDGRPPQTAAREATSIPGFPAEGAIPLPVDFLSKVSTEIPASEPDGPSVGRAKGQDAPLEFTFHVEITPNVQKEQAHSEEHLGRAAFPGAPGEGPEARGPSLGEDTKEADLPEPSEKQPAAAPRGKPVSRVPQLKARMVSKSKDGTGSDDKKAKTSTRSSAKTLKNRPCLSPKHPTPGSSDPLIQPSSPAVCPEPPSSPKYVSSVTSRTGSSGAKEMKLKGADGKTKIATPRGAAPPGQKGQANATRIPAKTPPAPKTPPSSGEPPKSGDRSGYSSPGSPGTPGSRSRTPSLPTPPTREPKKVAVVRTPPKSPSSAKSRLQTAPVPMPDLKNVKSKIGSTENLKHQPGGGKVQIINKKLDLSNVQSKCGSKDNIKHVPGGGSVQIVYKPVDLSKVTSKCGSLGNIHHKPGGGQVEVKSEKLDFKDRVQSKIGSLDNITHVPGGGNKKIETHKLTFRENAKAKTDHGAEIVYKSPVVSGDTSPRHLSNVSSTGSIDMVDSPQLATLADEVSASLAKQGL
SMILES,"activity change, negative = inhibition",Potency
OC(c1ccc2c(c1)OCO2)c1nccc2ccccc12 (configuration not stated),inactive: 2.8%,
N#Cc1c2n(c3c(=O)n(Cc4ccccc4)cnc13)CCCC2,inactive: 3.8%,
CCS(=O)(=O)N1CCC[C@H]2CN3CCc4cc(OC)ccc4[C@@H]3C[C@@H]21,,inconclusive: 39.8 µM [decreasing]
CCc1nc2sc3ccccc3c(=O)c2c(=O)n1Cc1ccco1,,active: 15.8 µM
CCOc1ccc(NC(=O)N(CCN2CCOCC2)Cc2ccc3c(c2)CCCN3CC)cc1,,inconclusive: 20 µM [decreasing]
CCOc1cc(NC(=O)c2ccco2)c(OCC)cc1NC(=O)Cc1cccc(OC)c1,,active: 10 µM
CCN1CCN(C(=O)Nc2ccc(Cc3ccc(NC(=O)N4CCN(CC)CC4)cc3)cc2)CC1,inactive: 25.6%,
COc1cc(NC(=O)Nc2ccccc2OC)c(OC)cc1NC(=O)CN1CCCCC1,,inconclusive: 31.6 µM [decreasing]
COc1cc2c(CCNC(C)=O)c[nH]c2cc1Cl,,inconclusive: 39.8 µM [decreasing]
COc1ccc(CC(=O)Nc2ccc(-c3nnc(-c4ccccc4)o3)cc2)cc1OC,inactive: 327%,
COC(=O)c1c(-c2cccc(C)c2)csc1N,,inconclusive: 39.8 µM [decreasing]
CC1(C)OCC(CSC2=C(SCC3COC(C)(C)O3)C(=O)c3ncccc3C2=O)O1 (configuration not stated),,active: 15.8 µM
Cc1ccc(C(C)C)c(OCC(=O)Nc2ccc(N3CCN(S(C)(=O)=O)CC3)cc2)c1,inactive: 2%,
COc1cc([C@@H]2Oc3cc([C@H]4Oc5cc(O)cc(O)c5C(=O)[C@H]4O)ccc3O[C@H]2CO)ccc1O,,inconclusive: 39.8 µM [decreasing]
COc1ccc(OC)c(C2CC(=O)N3CN(c4cccc(Cl)c4C)CSC3=C2C#N)c1 (configuration not stated),inactive: -10.5%,
O=c1c(O)c(-c2ccc(O)c(O)c2)oc2ccccc12,,inconclusive: 39.8 µM [decreasing]
COc1cccc(N2CCN(CC(=O)NCc3cccs3)CC2)c1,,inconclusive: 25.1 µM [decreasing]
Cc1ccc2nc(NC(=O)C3CCN(S(=O)(=O)c4cccc5nsnc45)CC3)sc2c1,,active: 5.01 µM
O=C(CCc1nc(-c2ccccc2)no1)NCC1CCCO1 (configuration not stated),,inconclusive: 20 µM [decreasing]
CCCn1c(=O)[nH]c2nc(-c3ccc(S(=O)(=O)O)cc3)[nH]c2c1=O,,inconclusive: 39.8 µM [decreasing]
Cc1cc(NC(=O)c2cnn3c(C(F)F)cc(-c4ccccc4)nc23)no1,,inconclusive: 3.16 µM [decreasing]

SMILES,"activity change, negative = inhibition",Potency
N[C@@H](C(=O)O)[C@H](CC(=O)O)c1ccc(Cl)cc1,,inconclusive: 39.8 µM [decreasing]
O=S(=O)(O)O,,inactive
C[C@@H]1O[C@H](O[C@@H]2\C=C/C=C\C=C/C=C\C[C@H](C)OC(=O)/C=C\[C@H]3O[C@@H]3C[C@H](O)C[C@]3(O)C[C@@H](O)[C@@H](C(=O)O)[C@H](C2)O3)[C@@H](O)[C@H](N)[C@@H]1O (stereo in doubt),inactive: 15.5% [at 25.6 µM],
CCOC(=O)/C(C#N)=C1/C=Cc2ccccc2N1CC,,active: 15.8 µM
CN(Cc1ccco1)c1ncnc2ccc(-c3ccccc3C#N)cc12,inactive: 17.2%,
CS(=O)(=O)N1CCC2(CCCN(C(=O)Nc3cccc(F)c3)C2)CC1,inactive: 7.3%,
C=CCn1c(-c2cccs2)nc2nc3ccccc3nc21,,active: 20 µM
NCCNS(=O)(=O)c1cccc2cnccc12,,inconclusive: 39.8 µM [decreasing]
COc1ccc(N=c2oc3c(OC)cccc3cc2C(=O)NCc2ccco2)c(OC)c1,,active: 1.26 µM
CC(C)(Sc1ccc(CCN(CCCCC2CCCCC2)C(=O)NC2CCCCC2)cc1)C(=O)O,,inconclusive: 39.8 µM [decreasing]
CCOC(=O)C1CCCN(C(=O)c2cc3c(-c4cccc(OC)c4)nn(C)c3s2)C1 (configuration not stated),inactive: 22.3%,
COc1ccc2nc3sc(C(=O)NCc4cccs4)c(N)c3cc2c1,,inconclusive: 3.16 µM [decreasing]
COCCOC(=O)C1=C(C)NC(C)=C(C(=O)OC(C)C)[C@H]1c1cccc([N+](=O)[O-])c1,,inconclusive: 15.8 µM [decreasing]
c1nc(N2CCCCCC2)c2[nH]cnc2n1,,inconclusive: 39.8 µM [decreasing]
CCCc1ccc(Oc2cn[nH]c2-c2ccc(O)c(C)c2O)cc1,inactive: 12%,
O=C1C(C=Nc2ccccc2O)=C(O)c2ccccc21,,inconclusive: 31.6 µM [decreasing]
COc1cc(-c2ccc(=O)[nH]n2)ccc1OC(F)F,,inconclusive: 39.8 µM [decreasing]
Cn1c(-c2ccccc2)cc2c3no[n+]([O-])c3ccc21,,active: 10 µM
COc1ccc(NCc2nnc(SCC(=O)c3ccc(OC)cc3)n2C)cc1,,inconclusive: 25.1 µM [decreasing]
CC[N+](CC)(CC)CC(=O)Nc1c(C)cccc1C,,inconclusive: 39.8 µM [decreasing]
CN1c2ccccc2C(C)(C)C12C=Cc1cc(O)ccc1O2 (configuration not stated),,active: 25.1 µM
